In paper PMC12136788:
This is one part of the list.

T1: UNK ZnF1-3 (human, UniProt Q9C0B0 31-174)
T1 sequence: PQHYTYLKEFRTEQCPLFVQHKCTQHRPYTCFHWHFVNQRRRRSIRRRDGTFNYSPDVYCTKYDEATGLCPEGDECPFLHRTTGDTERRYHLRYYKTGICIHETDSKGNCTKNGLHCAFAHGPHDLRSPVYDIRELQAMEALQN

B1: chr6:15520614:15520615:+_ENSG00000008083_ENST00000341776|hu_mus|FALSE|FALSE (ssRNA)
RNA: GGGAGUUCUACAGUCCGACGAUCUAGAUAUCUACGUACAAAAACUUGAACAGUUUAAUGCUAAAACAAAAUCAGUUCUCUAAAACCAGAAGAAAUUCUUCUUUAGAGCUAGUGCAAAGACAGCUUGUAUCCUACAGCAAGUACCAACAGAGGAUUGAGCAUCA
B2: chr5:95130247:95130248:+_ENSG00000164292_ENST00000379982|hu_mus|FALSE|FALSE (ssRNA)
RNA: GGGAGUUCUACAGUCCGACGAUCAUGCCUUUGAGCAUCUUGCAGAACCAUUUCUGCCAAUAUAUGCUAUGAGAGAAACUAACUCUGCCUUUUAUCCCAGACACCAUCGUCUCUACAUCUAGGAUAUCUUUGAUGUACAUAAUUCAACAGAGGAUUGAGCAUCA
B3: 68847805_68855150_758_CDS_ENSMUSG00000022332_ENSMUST00000022954|mouse|control|control (ssRNA)
RNA: GGGAGUUCUACAGUCCGACGAUCCCUGAUUUCAUCAUUAUAGUCAGGGAUCAGGAAUUUCUUGAUCUCUUCCAAGGCGUGCCCCAUCCGGGCAUAUGCUUCUGCUGGGGGUGCGAACACUUCAAUGAGCACGUGCAGGUCGUCCAACAGAGGAUUGAGCAUCA
B4: chr14:66974463:66974464:+_ENSMUSG00000022044_ENSMUST00000074523|mus_hu|mus_mus_mus_hu_False|1_68 (ssRNA)
RNA: GGGAGUUCUACAGUCCGACGAUCUUGUAGGACGACUUAUUCAGGGGAUCGGCCAGGAAGCAGGAGCAGAACAGAGACACCAGCGGGAGCUCCUUCAUCUUCUCUUUGUAGGCAGCAAGGGUCAUGUUUCUGGGAUCCUGGUGGCAACAGAGGAUUGAGCAUCA
B5: chr3:98235988:98235989:-_ENSG00000080822_ENST00000341181|hu_mus|FALSE|FALSE (ssRNA)
RNA: GGGAGUUCUACAGUCCGACGAUCCAGGCUGCGGCAGAUACAGGCACAGAGGCCAAUCAACGCCCCAAAGCACAUCAAGCCCAAGCUGACGAAGGGUAAAAGGAACUGGCAGCGCCACAGGUAGGUGCGAAGCAGGUCGAUGCCCAACAGAGGAUUGAGCAUCA
B6: chr10:75830775:75830776:+_ENSG00000035403_ENST00000372755|perfect_dup|motif|central (ssRNA)
RNA: GGGAGUUCUACAGUCCGACGAUCCAUAGUUUCCACUACCUCUGCCACUGUAAGAUAUUCCAAAAUUCCUUUGCAAACCCGGAUAAUUUUACGAACCUCAGCCUCAUCGAAGGUAAGCAGUAGGUCAGAUGUGCCAGAAAGGAUCAACAGAGGAUUGAGCAUCA
B7: chr2:104630212:104630213:-_ENSMUSG00000074994_ENSMUST00000117237|mus_hu|FALSE|FALSE (ssRNA)
RNA: GGGAGUUCUACAGUCCGACGAUCUGUAGUGUUAAAAGUUGAAUCCUGAAGCACCAAAGGUGAAGUGGUAGCAAAGUUUCUAUUGCUGAAGGUGGUGGGAUGCUGAUAAGCAGAGAGAGAUGGUGGAAGUGUUCCAGUGCUUGGCAACAGAGGAUUGAGCAUCA
B8: 9304462_9304582_1663_3pUTR_ENSG00000166471_ENST00000528080|human|control|control (ssRNA)
RNA: GGGAGUUCUACAGUCCGACGAUCAGAGCUAGACUCCGUCUCAAAACAGAAAAAAAAAAAAAAAAAAAAAGAGGAAGAAAAUGUAAAUCUCUUUUUAAGUUUUCCAGUUUAUGCUCUGAAAAAAGCCUAACAUUAACAAAACCUCAACAGAGGAUUGAGCAUCA
B9: chr15:66793332:66793333:-_ENSG00000174444_ENST00000568588|hu_mus|FALSE|FALSE (ssRNA)
RNA: GGGAGUUCUACAGUCCGACGAUCCAUGGGCAGGUUAUAGUUACUCUUGAGGGAAGCAGCCUUCCGCCAAGUGCCAUACAGCUCAUCCAACUUCCGGAAAGCACUCUCCGUCCAGAUGCAGAAACGGCCCACAUGCCCACCAGGCAACAGAGGAUUGAGCAUCA
B10: chr2:168009416:168009417:-_ENSMUSG00000051149_ENSMUST00000088001|perfect_dup|FALSE|FALSE (ssRNA)
RNA: GGGAGUUCUACAGUCCGACGAUCCAUAUGGUUGAGUAGGGUAUCUGUAGGCAAAUAGCGAUUACAGUAGAGGCAUUUGCUAGUAAAAUUGUGUAUUUUCAUAAUGUAGUUAGCUACGGCUGGGACUUUCUCAGCUUUAUGCUCCAACAGAGGAUUGAGCAUCA
B11: chrX:101152592:101152593:-_ENSMUSG00000056537_ENSMUST00000070705|mus_mus|motif|central (ssRNA)
RNA: GGGAGUUCUACAGUCCGACGAUCUUAAGUCUGCAGUAUGACAUCGUACAUAGGGAAAAAGCUUCUUCCUAAAAGAUAGCGGUUAAUAAUCAAACCAGAUUUCAUGACUGACCUUUCAAGGUCUCUUUCUGCAUUAAACAAGGUCAACAGAGGAUUGAGCAUCA
B12: chr19:16406628:16406629:+_ENSMUSG00000024639_ENSMUST00000025541|mus_hu|motif|central (ssRNA)
RNA: GGGAGUUCUACAGUCCGACGAUCGACACUUUGUAAGUCAAAGGGGUAUUCGAUGAUCCCUGUGGUGGGGACUCGAACUCGGAGCACAUCUUGUUGCGUAGGCAGGUAGGCAGGGUCAGCUACGCGGUCCAAGUCAUUAAGAUACAACAGAGGAUUGAGCAUCA
B13: 96404384_96404504_4670_3pUTR_ENSMUSG00000023169_ENSMUST00000088452|mouse|control|control (ssRNA)
RNA: GGGAGUUCUACAGUCCGACGAUCCUCCAUUACAGCUCCACAUUCUUUUCCAGCUGCCUGGGGGCCUAACCCCCACAUCUAAUCCAAUGAAGAAAAAUCCAUUCCGGGUUACAGAGCUUUGGAAUAUGGUCUCCCUGUGACCAGCAACAGAGGAUUGAGCAUCA
B14: chr4:120755967:120755968:-_ENSMUSG00000043207_ENSMUST00000058754|mus_hu|FALSE|FALSE (ssRNA)
RNA: GGGAGUUCUACAGUCCGACGAUCGAUUGCAUCUUUCAUGAAGAACCCCAAAGUCUGUUGAUUGAAGCCAUGUUUUUCUUCUAUCACAAAAGUAUUAUAAAGACUCCAUGGCAAACCAGUCAAUGCACUGAAAAGUGUAGCCAACAACAGAGGAUUGAGCAUCA

These binders were tested against T1, UNK ZnF1-3 (assay: nsRBNS (natural sequence RNA bind-n-seq); RBNS binding buffer (assumed for nsRBNS): 25 mM Tris pH 7.5, 150 mM KCl, 3 mM MgCl2, 0.01% Triton X-100, 500 ug/ml BSA, 20 U/ml SUPERase-In, 4 C; UNK is unkempt and MSI1 is Musashi-1; names of the RNAs are library labels; protein concentration not given here; high values mean tight binding).
In the case of B1, the binding signal is reported as 0.812 enrichment R.
B2 showed a binding signal of 0.682 enrichment R.
In the case of B3, the binding signal is reported as 0.79 enrichment R.
In the case of B4, the binding signal is reported as 1.81 enrichment R.
In the case of B5, the binding signal is reported as 1.18 enrichment R.
In the case of B6, the binding signal is reported as 1.26 enrichment R.
Binder B7 has a binding signal of 2.41 enrichment R.
B8 gave a binding signal of 1.87 enrichment R.
B9 was tested, and the binding signal was 1.23 enrichment R.
Work on B10 yielded a binding signal of 2.12 enrichment R.
B11 was tested, and the binding signal was 0.867 enrichment R.
Work on B12 yielded a binding signal of 1.23 enrichment R.
With B13 the binding signal was 1.01 enrichment R.
Binder B14 has a binding signal of 1.33 enrichment R.
